Screen size: about 45,000 compounds; about 65 (0.1%) were called active. The call rests on the fitted dose curve; in most records, active means well fitted activation curve with a large enough effect; inconclusive means small, poorly fitted or top-dose-only effect; inactive means no such curve, though single readings can be large or run the other way. The list shows a part of the results.
biological target: Galactocerebrosidase (Homo sapiens) (UniProt P54803); assay: A Novel Cell-Based Assay to Identify Small Molecules for B -Galactocerebrosidase; conditions: 145M-Twi-hGALC-G270D cells (Twitcher mouse brain line with human GALC G270D), HMU-beta-Gal fluorescence, 48 h; series mostly up to 57.5 µM; activation: at the top concentration; further: 0% is about no effect; nearly all actives have a fitted effect of over 65% in size
Sequence of UniProt P54803 (P54803 whole entry, looked up): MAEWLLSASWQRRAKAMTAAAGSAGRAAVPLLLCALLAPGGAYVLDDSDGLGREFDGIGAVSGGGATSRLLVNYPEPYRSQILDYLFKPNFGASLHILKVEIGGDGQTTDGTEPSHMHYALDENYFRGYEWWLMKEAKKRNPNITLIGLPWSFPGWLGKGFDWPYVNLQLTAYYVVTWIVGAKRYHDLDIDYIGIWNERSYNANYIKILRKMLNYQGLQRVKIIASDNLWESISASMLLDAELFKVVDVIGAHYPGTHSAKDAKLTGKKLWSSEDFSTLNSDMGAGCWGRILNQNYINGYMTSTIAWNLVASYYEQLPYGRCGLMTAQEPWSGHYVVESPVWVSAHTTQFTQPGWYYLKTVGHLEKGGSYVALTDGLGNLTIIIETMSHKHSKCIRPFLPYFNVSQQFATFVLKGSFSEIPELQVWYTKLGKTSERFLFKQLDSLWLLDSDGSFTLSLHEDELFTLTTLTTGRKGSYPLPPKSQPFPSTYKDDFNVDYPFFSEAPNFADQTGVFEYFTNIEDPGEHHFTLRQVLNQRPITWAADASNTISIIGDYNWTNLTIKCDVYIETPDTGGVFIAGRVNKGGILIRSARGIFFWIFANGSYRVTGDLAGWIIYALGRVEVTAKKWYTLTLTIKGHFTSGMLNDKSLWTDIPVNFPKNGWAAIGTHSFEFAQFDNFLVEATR
Method in brief: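 Fluorescence readout: HMU-β-gal cleavage by mutant GALC (0.1 mM final, citrate/phosphate pH 5.2 with 1 mg/mL taurocholate), stopped with carbonate/bicarbonate plus Triton X-100. Cells: murine Twitcher 145M-Twi expressing human G270D GALC; qHTS for activators.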

activation, inactive:
CCOC(=O)C1CCCN(S(=O)(=O)c2ccc3[nH]c(=O)ccc3c2)C1 (stereo not drawn) -7.56%
Cc1ccc(S(=O)(=O)NCc2nc3nc(C)cc(C)n3n2)c(C)c1 5.26%
O=c1c2sc3ccccc3c2n(Cc2ccccc2)c(=O)n1Cc1ccccc1 -8.89%
CCOc1ccc(CNC(=O)c2ccc3nc(Cc4ccc(OC)cc4)oc3c2)cc1OC -15.3%
Cc1ccc2c(CNCCc3ccc(Cl)cc3)c(C(=O)O)n(Cc3ccc(F)cc3)c2c1 -8.67%
CCOC(=O)c1ccc(NC(=O)CC2C(=O)N(c3ccccc3)C(=O)N2Cc2cccs2)cc1 (stereo not drawn) -19.4%
Cc1ccc(S(=O)(=O)c2[nH]c(-c3ccccc3)nc2SCC(=O)O)cc1 -9.04%
COc1ccc(N2CCN(CC(O)COc3ccc(C(C)(C)C)cc3)CC2)cc1 (stereo not drawn) -10.3%
CC(C)Cc1nn2c(=O)cc(COC(=O)c3ccc(NC(=O)c4cccs4)cc3)nc2s1 -8.9%
CCN(C(=O)Cc1c(C(=O)O)[nH]c2ccccc12)c1ccc(OC)cc1 -11.7%
CCC(=O)N1c2ccccc2CC1C(=O)N1CCN(c2ccccc2)CC1 (stereo not drawn) 11.7%
Cc1ccc(Cl)cc1NC(=O)c1ccc(-c2nc(CSc3ccccc3)c(C)o2)cc1 -25.1%
O=S(=O)(NCCc1csc(-c2ccc(F)cc2)n1)c1ccc(Cl)cc1 -14.3%
O=c1c2c3c(sc2nnn1Cc1ccc(Br)cc1)CCCC3 -8.79%
CCOC(=O)c1ccc(NC(=O)CCc2c(C)nc3c(c(C)nn3C)c2C)cc1 -17.3%
CCOc1ccccc1NC(=O)Cn1c(=O)ccc2cc(S(=O)(=O)N3CCC(C)CC3)ccc21 -11.1%
CC(=O)c1ccc(N2CCN(C(=O)C3CCN(S(=O)(=O)c4cccc5nonc45)CC3)CC2)cc1 -5.84%
CC1CCCCN1CCCOC(=O)c1ccc(OC2CCCCC2)cc1 (stereo not drawn) -12.2%
O=C(c1cc2ccccc2oc1=O)N(Cc1cccc(Cl)c1)C1CCS(=O)(=O)C1 (stereo not drawn) -9.92%
COc1ccc(-c2cnc(C)o2)cc1S(=O)(=O)Nc1ccc(C)c(F)c1 5.6%
Cc1ccc(CN2CCSc3ccc(C(=O)N4CCN(c5cccc(C)c5C)CC4)cc32)cc1 -15.1%
O=C(CSc1nccn1Cc1ccc(Cl)cc1)NC1CCCC1 -20%
Cc1ccc(OCCCn2c(C3CC(=O)N(c4cccc(Cl)c4)C3)nc3ccccc32)c(C)c1 (stereo not drawn) -26%
CCOC(=O)C1CCN(C(=O)C2COc3ccccc3C2)CC1 (stereo not drawn) -26.1%
CC(=O)N1CCc2c(sc3c2c(=O)n(Cc2ccccc2)c(=O)n3Cc2ccccc2F)C1 0.434%
O=C(Cc1cccs1)Nc1c(C(=O)Nc2ccc(F)cc2)oc2ccccc12 -11%
CC(C)CN1CCc2nc(Nc3ccc(F)cc3F)ncc2C1 -5.25%
Cc1ccccc1OCC(O)CO (stereo not drawn) -4.12%
COc1cc(/C=C(\C#N)c2nc3ccccc3[nH]2)ccc1OCc1ccccc1F 6.13%
Cc1ccc(-c2onc(C)c2C)cc1S(=O)(=O)N1CCOc2ccc(Cl)cc21 -5.44%
COc1ccc(-n2c(SCC(N)=O)nc3c(oc4ccccc43)c2=O)cc1 -3.35%
CC(C)(C)OC(=O)N1CCc2nc(N3CCN(c4ncccn4)CC3)ncc2C1 -13.9%
CCS(=O)(=O)N1CCc2cc(C(=O)N3CCN(c4ccccc4OC)CC3)ccc21 -9.86%
COc1ccc(CCC(=O)NCc2ccc3c(c2)CCN3C(=O)c2ccccc2)cc1 -20.7%
CCC(Sc1nc(-c2ccc(F)cc2)nc2c1Cc1c(CO)cnc(C)c1O2)C(=O)Nc1ccc(F)cc1 (stereo not drawn) -4.57%
COc1c(Cl)cc(C(=O)N(Cc2ccccc2F)C2CCS(=O)(=O)C2)cc1Cl (stereo not drawn) -12%
COc1ccc(C(CNC(=O)c2ccc(F)cc2)N2CCCC2)cc1 (stereo not drawn) 0.76%
Cn1c(=O)c2c(nc(SCC(=O)Nc3ccc(F)cc3)n2Cc2ccccc2F)n(C)c1=O -6.53%
Cc1cc(C)cc(NC(=O)N2CCC(CN3CCCCCC3)CC2)c1 1.71%
CCOc1ccc2nc(NC(=O)c3nc(SCc4ccccc4C)ncc3Cl)sc2c1 17.4%
CCC(=O)N1c2ccc(S(=O)(=O)CCC(=O)N3CCN(c4cc(C)ccc4C)CC3)cc2CC1C (stereo not drawn) -7.02%
CCCSc1ncc(Cl)c(C(=O)Nc2c(C(=O)c3ccc(C)cc3)oc3ccccc23)n1 -7.63%
O=C(CSc1nc2nccnc2c(=O)n1CCc1c[nH]c2ccccc12)Nc1ccccc1 12.3%
COC(=O)c1c(NC(=O)/C(C#N)=C/c2ccc(OC)cc2)sc2c1CCC2 -17.7%
O=C1CN(/N=C/c2ccc([N+](=O)[O-])o2)C(=O)N1 -7.33%
O=C(NC1CC(=O)N(c2ccccc2)C1)C(c1ccccc1)c1ccccc1 (stereo not drawn) -4.31%
CCc1ccc(C(=O)c2cn(CC(=O)Nc3cc(OC)ccc3OC)c3nc(C)ccc3c2=O)cc1 3.27%
Cc1c(CCNC(=O)c2ccc(Br)o2)sc2nc(-c3ccc(Cl)cc3)nn12 7.79%
Cc1ccc(C(=O)N2CCCCC2)cc1NC(=O)c1nsc2ccccc12 -12.1%
COc1ccc(S(=O)(=O)N2CCC(N3CCN(Cc4ccc(F)cc4)C(=O)C3=O)CC2)cc1 -21.4%
CC1=C(CC(=O)O)c2cc(F)ccc2/C1=C\c1ccc(S(C)(=O)=O)cc1 -7.28%
Cc1oc2cc3oc(=O)c(CC(=O)NCc4ccccc4)c(C)c3cc2c1C 3.91%
Cc1ccc(-n2c(=O)c3sc4ccccc4c3n(C)c2=O)cc1F -2.58%
COc1cccc(NC(=O)c2oc3ccccc3c2NC(=O)c2ccc(F)c(F)c2)c1 -11.2%
Cc1ccc(C)c(NC(=O)c2ccc3c(c2)CCCN3S(C)(=O)=O)c1 -14.3%
Cc1ccc(CNC(=O)CCc2c(C)nn(-c3ccc(N4CCOCC4)nn3)c2C)cc1 19.9%
O=C(NCC(c1cccnc1)N1CCN(c2ccccc2F)CC1)C(=O)Nc1ccc(F)cc1F (stereo not drawn) -11.7%
COc1cccc(N2CCN(C(=O)C3CCCN(S(=O)(=O)c4cccc5nsnc45)C3)CC2)c1 (stereo not drawn) -16.2%
CCOc1ccc(C(=O)c2cn(CC(=O)Nc3ccc4c(c3)OCO4)c3ccc(OC)cc3c2=O)cc1 -19.2%
O=C(CCn1c(=O)c2cccn2c2cccnc21)NCc1ccccc1Cl -3.18%
O=C(CSc1nc2ncccc2[nH]1)Nc1cc(F)ccc1F -15.6%
Cc1ccc(S(=O)(=O)c2cn(CC(=O)Nc3cccc(Cl)c3)c3ccccc3c2=O)cc1 3.85%
Cc1ccc(Cl)cc1NC(=O)CSc1nc2ccccc2c2nc(-c3ccccc3)nn12 2%
CCOC(=O)C1CCN(C(=O)c2nn(-c3ccc(OC)c(Cl)c3)c(=O)c3c2c2ccccc2n3C)CC1 4.23%
CCOc1ccc(C(=O)Nc2cc(-c3nc4cc(OC)ccc4o3)ccc2C)cc1[N+](=O)[O-] -11.5%
COc1ccc(OC)c(NC(=O)Cn2c(=O)c3cccn3c3ccccc32)c1 -14.8%
CCOc1ccc2c(c1)c(=O)c(C(=O)c1ccc(CC)cc1)cn2CC(=O)Nc1ccccc1OC -6.31%
O=C(Nc1cccc(Cl)c1)C1CCCN(c2nn3cc(-c4ccc(F)cc4)nc3s2)C1 (stereo not drawn) -2.98%
CCn1c(=O)n(-c2ccc3c(c2)OCO3)c2nc(-c3ccc(C(C)C)cc3)nc(C(N)=O)c21 11.4%
O=C(COc1ccc2ccccc2c1)NC1CC(=O)N(c2ccc(F)cc2)C1 (stereo not drawn) -11.6%
CCOc1ccccc1NC1(c2ccccc2)C(=O)c2ccccc2C1=O -15%
CC1CCCCN1CCCNC(=O)c1cc(Sc2cccc(Cl)c2)nc2ccccc12 (stereo not drawn) -15.2%
Cc1ccccc1CN1c2ccccc2-c2nc(SCC(=O)c3ccccc3)ncc2S1(=O)=O -11.1%
O=C(Cn1cc(C(=O)C(F)(F)F)c2ccccc21)N1CCCCCC1 2.55%
CC1(C)N=C(SCc2ccc(F)cc2)c2ccccc2N1 -13.5%
CCNC(=O)c1ccc2c(c1)nc1n2CCCCC1 16.6%
Cc1ccccc1OCc1nc2c3cnn(-c4cccc(F)c4)c3ncn2n1 -12.2%
Cc1c(CNC2CCCCC2)c(C(=O)O)c(C)n1Cc1ccccc1F -9.59%
CC(=O)N1CCCc2cc(S(=O)(=O)N3CCN(c4ccccc4F)CC3)ccc21 -13.4%
COc1cccc(C2C(C(=O)Nc3ccc(Cl)cc3)=C(C)Nc3nc4ccccc4n32)c1OC (stereo not drawn) 0.7%
Cc1ccc2c(c1)N(C(=O)N1CCC(C(=O)NCc3ccccc3C)CC1)CC(C)O2 (stereo not drawn) -20%
CCCCNC(=O)c1ccc2c(c1)N(CC)C(=O)c1ccccc1S2 -11.4%
Cc1oc2ncn(CC(C)C)c(=O)c2c1C(=O)N(CCN(C)C)Cc1ccccc1 -16.4%
CCCCNC(=O)c1c(-c2ccccc2)c(-c2ccccc2)nn(C)c1=O -13.3%
CC(C)(C)C(=O)C(Oc1ccc(Cl)cc1)n1ccnc1 (stereo not drawn) -15.8%
CCNC(=O)c1c(NC(=O)Cc2coc3ccc(CC)cc23)sc2c1CCCC2 -14.6%
CCCCNC(=O)CN1C(=O)c2cccnc2Sc2ccccc21 -20.8%
COc1ccc(C)cc1NC(=O)c1cc(S(=O)(=O)N2CCOCC2)cn1C -10.5%
O=C(CSc1nc(=O)[nH]c2c1CCCC2)NCc1ccccc1Cl -12.5%
CC1=C(C(=O)Nc2cccnc2)C(c2cccc(F)c2)n2nc(SCc3ccccc3F)nc2N1 (stereo not drawn) -5.19%
NC(=NCCCCCCN=C(N)/N=C(\N)Nc1ccc(Cl)cc1)/N=C(\N)Nc1ccc(Cl)cc1 11%
CC(=O)N1c2ccc(S(=O)(=O)NCc3ccccc3Cl)cc2CC1C (stereo not drawn) -31.1%
CCCc1nnc(NC(=O)c2cc(=O)c3ccccc3o2)s1 25.3%
COc1ccc(N2CCN(C(=O)C3CCCN(C(=O)c4cc5sccc5n4C)C3)CC2)cc1 (stereo not drawn) -9.05%
CCOC(=O)c1c(C)n(-c2ccccc2)c2ccc(OC(=O)COc3ccccc3)cc12 -15%
CCc1cccc(NC(=O)CSc2nncn3c2cc2sccc23)c1 1.64%
CCOc1ccc(CCNC(=O)c2cc3c(=O)n(CC)c4ccccc4c3s2)cc1OCC -2.04%
Cc1ccc(NC(=O)c2sc3ncn(Cc4cccc(F)c4)c(=O)c3c2C)c(Br)c1 -5.92%
